Results from US12077501B2, “Compounds and compositions for intracellular delivery of agents” (ModernaTX, Inc., priority 2017, dated 2024).
The name of at least one read-out is uncertain.

These molecules were tested on hEPO expression (assay: hEPO expression in CD-1 mice compared with MC3). Details: intravenous, 0.5 mpk, Table 7e.
Format: in vivo
Source text: In contrast, hEPO expression in rats induced by administration of a nanoparticle composition including a compound according to one of formulae (I), (Ia1)-(Ia6), (Ib), (II), (IIa), (III), and (IIIa) was substantially […] than that measured for MC3. […] Tables 7c and 7d show additional protein expressions and clearance data from compositions with various compounds disclosed herein as compared to with MC3. Tables 7e, 7f and 7g show hEPO expression data in CD-1 mice at a dose of 0.5 mpk.

Compared with `CCCCCCCCCN(CCCCCCCCC)CCN(CCCCCCCCC)CC(=O)N1CCN(C(=O)CN(CCCCCCCCC)CCCC(=O)OCCCCC)CC1` [Compound 45, Pentyl 4-((2-(4-(N-(2-(dinonylamino)ethyl)-N-nonylglycyl)piperazin-1-yl)-2-oxoethyl)(nonyl)amino)butanoate], `CCCCCCCCCN(CCCCCCCCC)CCN(CCCCCCCCC)CC(=O)N1CCN(C(=O)C(C)N(CCCCCCCCC)CCCC(=O)OCCCCC)CC1` (stereo not drawn) [Compound 111, Pentyl 4-((1-(4-(N-(2-(dinonylamino)ethyl)-N-nonylglycyl)piperazin-1-yl)-1-oxopropan-2-yl)(nonyl)amino)butanoate] is higher in “Lipid/MC3 AUC” value: 2.02 for the first, 4.64 for the second.

In the case of `CCCCCCCCCCCCCCN(CCCCCC(=O)OCCCCCCC)CCC1CCCN(C(=O)CN(CCCCCCCCC)CCN(CCCCCCCCC)CCCCCCCCC)C1` (stereo not drawn) [Compound 121, Heptyl 6-((2-(1-(N-(2-(dinonylamino)ethyl)-N-nonylglycyl)piperidin-3-yl)ethyl)(tetradecyl)amino)hexanoate], the “Lipid/MC3 AUC” value is reported as 0.67.

What follows are molecules tested on hEPO expression (assay: hEPO (miR126 + miR142) mRNA expression, Tables 8b-8e). Details: Table 8b.
Format: in vivo

Compared with `CCCCCCCCCN(CCCCCCCCC)CCN(CCCCCCCCC)CC(=O)N(CC)CCN(CC)C(=O)CN(CCCCCCCCC)CCCCCCCCC` [Compound 157, 2-(dinonylamino)-N-(2-(2-((2-(dinonylamino)ethyl)(nonyl)amino)-N-ethylacetamido)ethyl)-N-ethylacetamide], `CCCCCCCCCN(CCCCCCCCC)CCN(CCCCCCCCC)CC(=O)N(C)CCCN(C)C(=O)CN(CCCCCCCCC)CCCCCCCCC` [Compound 155, 2-(dinonylamino)-N-(3-(2-((2-(dinonylamino)ethyl)(nonyl)amino)-N-methylacetamido)propyl)-N-methylacetamide] is lower in “Lipid/MC3 AUC” value: 11.71 for the first, 5.00 for the second.

Compared with `CCCCCCCCCN(CCCCCCCCC)CCN(CCCCCCCCC)CC(=O)NCCNC(=O)CN(CCCCCCCCC)CCCCCCCCC` [Compound 153, 2-(dinonylamino)-N-(2-(2-((2-(dinonylamino)ethyl)(nonyl)amino)acetamido)ethyl)acetamide], `CCCCCCCCCN(CCCCCCCCC)CCN(CCCCCCCCC)CC(=O)N(C)CCCCN(C)C(=O)CN(CCCCCCCCC)CCCCCCCCC` [Compound 159, 2-(dinonylamino)-N-(4-(2-((2-(dinonylamino)ethyl)(nonyl)amino)-N-methylacetamido)butyl)-N-methylacetamide] is higher in “Lipid/MC3 AUC” value: 3.16 for the first, 3.69 for the second.

Going from `CCCCCCCCCCCCCCN(CCCOC(=O)CCCCCCCCC)CC(=O)N(C)CCN(C)C(=O)CN(CCCCCCCCC)CCN(CCCCCCCCC)CCCCCCCCC` [Compound 158, 7,10-dimethyl-13,16-dinonyl-6,11-dioxo-4-tetradecyl-4,7,10,13,16-pentaazapentacosyl Decanoate] to `CCCCC/C=C\CCN(CC/C=C\CCCCC)CCN(CC/C=C\CCCCC)CC(=O)N(C)CCN(C)C(=O)CN(CCCCCCCCC)CCCCCCCCC` [Compound 154, 2-((2-(di((Z)-non-3-en-1-yl)amino)ethyl)((Z)-non-3-en-1-yl)amino)-N-(2-(2-(dinonylamino)-N-methylacetamido)ethyl)-N-methylacetamide], the “Lipid/MC3 AUC” value rises from 0.58 to 7.69.

Same assay, conditions: Table 8c

Compared with `CCCCCCCCCN(CCCCCCCCC)CCCOCCCN(CCCCCCCCC)CCN(CCCCCCCCC)CCCCCCCCC` [Compound 161, N^1-(3-(3-(dinonylamino)propoxy)propyl)-N^1,N^2,N^2-trinonylethane-1,2-diamine], `CCCCCCCCCCNC(=O)CN(CCCCCCCCC)CCN(CCCCCCCCC)CCCCCCCCC` [Compound 162, N-decyl-2-((2-(dinonylamino)ethyl)(nonyl)amino)acetamide] is higher in “Lipid/MC3 AUC” value: 0.01 for the first, 1.51 for the second.

Same assay, conditions: Table 8d

First: CCCCCCCCCOC(=O)CCCCCCCN(CCCCCCCC(=O)OC(CCCCCCCC)CCCCCCCC)CCCCC(=O)N(C)CCN(C)C(=O)CCCCN(CCCCCCCC(=O)OCCCCCCCCC)CCCCCCCC(=O)OC(CCCCCCCC)CCCCCCCC [Compound 183, Di(heptadecan-9-yl) 15,18-dimethyl-9,24-bis(8-(nonyloxy)-8-oxooctyl)-14,19-dioxo-9,15,18,24-tetraazadotriacontanedioate]
Second: CCCCCCCCCOC(=O)CCCCCCCN(CCCCCCCC(=O)OC(CCCCCCCC)CCCCCCCC)CCCCC(=O)N(CC)CCN(CC)C(=O)CCCCN(CCCCCCCC(=O)OCCCCCCCCC)CCCCCCCC(=O)OC(CCCCCCCC)CCCCCCCC [Compound 181, Di(heptadecan-9-yl) 15,18-diethyl-9,24-bis(8-(nonyloxy)-8-oxooctyl)-14,19-dioxo-9,15,18,24-tetraazadotriacontanedioate]
The “Lipid/MC3 AUC” value of the first is lower: 0.09 for the first, 0.24 for the second.

Going from `CCCCCCCCCOC(=O)CCCCCCCN(CCCCCCCC(=O)OC(CCCCCCCC)CCCCCCCC)CCCCC(=O)OCCOC(=O)CCCCN(CCCCCCCC(=O)OCCCCCCCCC)CCCCCCCC(=O)OC(CCCCCCCC)CCCCCCCC` [Compound 185, Di(heptadecan-9-yl) 8,8′-(11,24,29,42-tetraoxo-10,25,28,43-tetraoxa-19,34-diazadopentacontane-19,34-diyl)dioctanoate] to `CCCCCCCCCOC(=O)CCCCCCCN(CCCCCCCC(=O)OC(CCCCCCCC)CCCCCCCC)CCCCC(=O)OC(C)CC(C)OC(=O)CCCCN(CCCCCCCC(=O)OCCCCCCCCC)CCCCCCCC(=O)OC(CCCCCCCC)CCCCCCCC` (stereo not drawn) [Compound 187, Di(heptadecan-9-yl) 8,8′-(26,28-dimethyl-11,24,30,43-tetraoxo-10,25,29,44-tetraoxa-19,35-diazatripentacontane-19,35-diyl)dioctanoate], the “Lipid/MC3 AUC” value rises from 0.03 to 0.08.

For `CCCCCCCCCN(CCCCCCCCC)CCN(CCCCCCCCC)CC(=O)OC(C)CC(C)OC(=O)CN(CCCCCCCCC)CCCCCCCCC` (stereo not drawn) [Compound 189, 4-((N-(2-(Dinonylamino)ethyl)-N-nonylglycyl)oxy)pentan-2-yl dinonylglycinate], the “Lipid/MC3 AUC” value was 0.02.

Same assay, conditions: lipid:Chol:PEG 1 50:47.5:2.5, Table 8e

Compared with `CCCCCCCCCOC(=O)CCCCCCCN(CCCCCCCC(=O)OCCCCCCCCC)CCOCCN(CCCCCCCCC)CCCCCCCCC` [Compound 179, Dinonyl 8,8′-((2-(2-(dinonylamino)ethoxy)ethyl)azanediyl)dioctanoate], `CCCCCCCCCOC(=O)CCCCCCCN(CCCCCCCC(=O)OCCCCCCCCC)CCOCCOCCN(CCCCCCCCC)CCCCCCCCC` [Compound 173, Nonyl 18-nonyl-9-(8-(nonyloxy)-8-oxooctyl)-12,15-dioxa-9,18-diazaheptacosanoate] is lower in “Lipid/MC3 AUC” value: 0.35 for the first, 0.30 for the second.

Compared with `CCCCCCCCCOC(=O)CCCCCCCN(CCCCCCCC(=O)OC(CCCCCCCC)CCCCCCCC)CCOCCN(CCCCCCCCC)CCCCCCCCC` [Compound 180, Heptadecan-9-yl 8-((2-(2-(dinonylamino)ethoxy)ethyl)(8-(nonyloxy)-8-oxooctyl)amino)octanoate], `CCCCCCCCCOC(=O)CCCCCCCN(CCCCCCCC(=O)OC(CCCCCCCC)CCCCCCCC)CCCCCN(CCCCCCCCC)CCCCCCCCC` [Compound 178, Heptadecan-9-yl 8-((5-(dinonylamino)pentyl)(8-(nonyloxy)-8-oxooctyl)amino)octanoate] is higher in “Lipid/MC3 AUC” value: 2.91 for the first, 3.76 for the second.

`CCCCCCCCCOC(=O)CCCCCCCN(CCCCCCCC(=O)OCCCCCCCCC)CCCCCN(CCCCCCCCC)CCCCCCCCC` [Compound 177, Dinonyl 8,8′-((5-(dinonylamino)pentyl)azanediyl)dioctanoate] was tested, and the “Lipid/MC3 AUC” value was 3.05.
